These are enrichments in a pooled selection; single values are uncertain.
Test system: NB7
Test: fold depletion of shRNA, plasmid library share / infected cells without Dox share (9 days) (ratio); higher = more depleted after infection (more toxic, leaky expression from a Tet-inducible vector; NB7 is a neuroblastoma line without caspase-8)
[1] = shRNA pool: CD95 ORF + CD95 3'UTR + Venus libraries
[2] = shRNA pool: CD95L ORF + CD95L 3'UTR + Venus libraries
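Note: shRNA barcodes quantified by deep sequencing of PCR amplicons from cellular DNA, counts expressed as percent of each subpool, ratio averaged over two biological duplicates.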

Sequence	fold depletion of shRNA [1]	fold depletion of shRNA [2]
TCTCCTTACTACTATCCTACG	0.621	
TCTCCTTGTGATGTTTTTCAT		1.06
TCTCGGCATGGACGAGCTGTA	1.28	1.8
TCTCTCTGGTCAATTTTGAGG		1.53
TCTCTGGTCAATTTTGAGGAA		0.992
TCTGAGAAGATCATATTTATG	0.756	
TCTGAGCTCTCTCTGGTCAAT		2.24
TCTGAGTATATGCAATTAGTG	1.46	
TCTGATAATTCTAGAGATTTT	0.618	
TCTGATGTTGACTTGAGTAAA	1.05	
TCTGCACCACCGGCAAGCTGC	0.906	1.1
TCTGCCATAAGCCCTGTCCTC	0.917	
TCTGCCTCCAAGGATGTTTAA	0.271	
TCTGGAATGGGAAGACACCTA		1.85
TCTGGACCCTCCTACCTCTGG	0.923	
TCTGGAGTGAAGTATAAGAAG		0.587
TCTGGATTTAGGAATTGCTCT	1.43	
TCTGGCATCTAACATATGATT	1.44	
TCTGGGCTGCCATGTGAAGAG		0.821
TCTGGTCAATTTTGAGGAATC		1.07
TCTGGTGATGATGGAGGGGAA		1.5
TCTGGTTCTTACGTCTGTTGC	2.27	
TCTGGTTGCCTTGGTAGGATT		0.985
TCTGTAAATGTAAACTGTGAA	0.781	
TCTGTAGCTCCTCAACTCACC		2.6
TCTGTAGTATGAATGTAATCA	0.922	

Sequence	fold depletion of shRNA [1]	fold depletion of shRNA [2]
TCTGTGCCCAGAAGGCCTGGT		36.7
TCTGTTGCTAGATTATCGTCC	1.02	
TCTTAATAGCTGGCTGTAAAT	2.08	
TCTTACATGCATTTGAGGTCA		3.98
TCTTACCAGTGCTGATCATTT		1.27
TCTTACGTCTGTTGCTAGATT	1.71	
TCTTAGTGCCTGAGAGTATTT		7.36
TCTTATTTTTCCCCCACCCCC	5.04	
TCTTCAAGGACGACGGCAACT	1.01	1.75
TCTTCAAGTCCGCCATGCCCG	0.798	0.457
TCTTCACTTCTAAATGCATAT		0.727
TCTTCCAAATGCAGAAGATGT	0.937	
TCTTCTTCAAGGACGACGGCA	1.35	
TCTTCTTCTTTTGCCAATTCC	0.803	
TCTTCTTTTGCCAATTCCACT	1.25	
TCTTGCAACAACCTGCCCCTG		0.694
TCTTGCAGAGAAAATTCAGAC	1.3	
TCTTTCAGATACATGGTTGTG		1.52
TCTTTCCATTATGATTCTTTG		0.841
TCTTTCTCAGGCATCAAAAGC	1.51	
TCTTTGAAAGTTTGTATTAAA	1.54	
TCTTTGGAGAAGCAAATAGGC		2.57
TCTTTGTACTCTTGCAGAGAA	0.601	
TCTTTGTTACAGGCACCGAGA		3.76
TCTTTTGCCAATTCCACTAAT	4.31	
TGAAAAAAAGGAGCTGAGGAA		1.35

Sequence	fold depletion of shRNA [1]	fold depletion of shRNA [2]
TGAAAAACAACAAATTCAGTT	1.04	
TGAAAAAGCAGCTACCAGGTG		11.6
TGAAAACATGTAATAAAAAGT		0.765
TGAAAAGGACACCTTTTAACT		3.66
TGAAACAGTGGCAATAAATTT	1.24	
TGAAACTAACAGATAAGCAAG		1.98
TGAAACTGGGCTGTACTTTGT		0.949
TGAAAGAGGCCAATGCCCCAC		1.28
TGAAAGATTAAGATTATGCTC	0.825	
TGAAAGTTTGTATTAAATGTG	1.31	
TGAAATATCAGTTACTGAACA	0.781	
TGAAATCCAAAGCTTGGTCTA	11.7	
TGAAATGAAAACATGTAATAA		0.412
TGAACACTGTGACCCTTGCAC	2.37	
TGAACATGGAATCATCAAGGA	1.51	
TGAACCAAGTGGACCTTGAGA		6.4
TGAACCAGACTGCGTGCCCTG	0.942	
TGAACCCATGTTTGCAATCAA	0.933	
TGAACCGCATCGAGCTGAAGG	0.985	
TGAAGAAGAGAGGGAACCACA		0.908
TGAAGAGAAAGGAAGTACAGA	0.8	
TGAAGAGCCAACATATTTGTA	0.852	
TGAAGAGGGAGAAGCATGAAA		0.659
TGAAGATAGTTATAAACTGAA	0.844	
TGAAGCAGATACCTGGAACCA	1.46	
TGAAGCAGCACGACTTCTTCA	0.185	0.127

Sequence	fold depletion of shRNA [1]	fold depletion of shRNA [2]
TGAAGCCAAAATAGATGAGAT	1.29	
TGAAGCTGATCTGCACCACCG	2.34	
TGAAGGACATGGCTTAGAAGT	1.5	
TGAAGGGCATCGACTTCAAGG	0.761	0.487
TGAAGTACATATTAGGAAAAT		0.535
TGAAGTATAAGAAGGGTGGCC		2.28
TGAAGTTCGAGGGCGACACCC	1.44	
TGAATCAATAGAAGAAGCTAT	0.94	
TGAATCTCCAACTTTAAATCC	2.06	
TGAATGCTTCCTGACAATCAA		1.41
TGAATGTAATCAGTGTATGTT	1.06	
TGAATTCACATAGAAAACATT	0.681	
TGAATTTTAAGAAATAATATT	1.07	
TGACAATCAACTCTAATAGTG		1.47
TGACACATTGATTAAAGATCT	0.861	
TGACACTAAGTCAAGTTAAAG	0.953	
TGACCACCCTGGGCTACGGCC	1.78	1.68
TGACCCTGAAGCTGATCTGCA	1.16	0.778
TGACCCTTGCACCAAATGTGA	1.03	
TGACCGCCGCCGGGATCACTC		1.43
TGACCTGAGGATTTAAGGGAT		0.695
TGACCTTTTGCTGAAATATCA	0.935	
TGACGGAAGAACATAGAACTC		1.06
TGACTAAAGAGAGAATGTAGA		0.483
TGACTATTATATATGTGTATG	1.02	
TGACTCAGAAAATTCAAACTT	0.847	

Sequence	fold depletion of shRNA [1]	fold depletion of shRNA [2]
TGACTGACATCAACTCCAAGG	2.67	
TGACTTGAGTAAATATATCAC	0.826	
TGAGAAGATCATATTTATGTA	0.967	
TGAGACCACAGGGTTCAAAAT		22.1
TGAGACTCAGAACTTGGAAGG	0.582	
TGAGAGTATTTAGGCAGATTG		2.77
TGAGATCAAGAATGACAATGT	3.58	
TGAGCAAAGACCCCAACGAGA	0.961	1.2
TGAGCAAGGGCGAGGAGCTGT	0.558	0.5
TGAGCAGGAGAGTATTACTAG	1.79	
TGAGCCACAAGGTCTACATGA		0.724
TGAGCCAGACAAATGGAGGAA		0.68
TGAGCCATCGGTGAAACTAAC		3.85
TGAGCTACCAGTCCGCCCTGA	0.953	2.09
TGAGCTACTGCACTACTGGGC		4.48
TGAGCTCTCTCTGGTCAATTT		0.798
TGAGGAAAGTGGCCCATTTAA		3.98
TGAGGAACTCTAAGTATCCCC		0.63
TGAGGAAGACTGTTACTACAG	2.27	
TGAGGAATCTCAGACGTTTTT		2.13
TGAGGATTTAAGGGATGGAAA		3.11
TGAGGGTCTTCTTACATGCAT		1.24
TGAGGTCAAGTAAGAAGACAT		1.28
TGAGTAAATATATCACCACTA	0.774	
TGAGTATATGCAATTAGTGTT	1.14	
TGAGTGCAGAATTTAAATAAG	1.02	

Sequence	fold depletion of shRNA [1]	fold depletion of shRNA [2]
TGATAAAATAGATTCTTATTT	0.972	
TGATAATTCTAGAGATTTTAC	0.94	
TGATCATTTATATGTCAACGT		1.46
TGATCTGCACCACCGGCAAGC	1.76	1.52
TGATGAGCTACTGCACTACTG		1.63
TGATGATGGAGGGGAAGATGA		2.9
TGATGGAGGGGAAGATGATGA		1.74
TGATGTTGACTTGAGTAAATA	1.41	
TGATGTTTTCCTATAATATAA		1.41
TGATGTTTTTCATGGTTCTGG		1.22
TGATTAAAGATCTCAAAAAAG	0.975	
TGATTCTGCCTCCAAGGATGT	1.36	
TGATTCTGTAGTATGAATGTA	1.29	
TGATTCTTTGTTACAGGCACC		5.99
TGATTGTCAGCTACTAATGAT		3.14
TGCAAAGAGGAAGGATCCAGA	0.718	
TGCAATCAAAGATGATAAAAT	0.808	
TGCAATTAGTGTTTGAAAAGA	0.948	
TGCAATTGTAGGGGTGTGTGT		1.02
TGCACACAGCATCATCTTTGG		1.49
TGCACACTCACCAGCAACACC	0.745	
TGCACAGTTTATTGGTGTCAT	2.33	
